Article PMC8771550
No constants are given. Whether binding was seen depends on the method and setting. In cells and extracts the contact can be indirect. Some results given as binding are weak or reduced against the parent protein; the word gives no strength. Each block holds one binder with its values, some of them ahead of it.

By UniProt entry, the sequences of proteins in these tests, tags left out. Residues count along the entry.
UniProt P56726, residues 33-793: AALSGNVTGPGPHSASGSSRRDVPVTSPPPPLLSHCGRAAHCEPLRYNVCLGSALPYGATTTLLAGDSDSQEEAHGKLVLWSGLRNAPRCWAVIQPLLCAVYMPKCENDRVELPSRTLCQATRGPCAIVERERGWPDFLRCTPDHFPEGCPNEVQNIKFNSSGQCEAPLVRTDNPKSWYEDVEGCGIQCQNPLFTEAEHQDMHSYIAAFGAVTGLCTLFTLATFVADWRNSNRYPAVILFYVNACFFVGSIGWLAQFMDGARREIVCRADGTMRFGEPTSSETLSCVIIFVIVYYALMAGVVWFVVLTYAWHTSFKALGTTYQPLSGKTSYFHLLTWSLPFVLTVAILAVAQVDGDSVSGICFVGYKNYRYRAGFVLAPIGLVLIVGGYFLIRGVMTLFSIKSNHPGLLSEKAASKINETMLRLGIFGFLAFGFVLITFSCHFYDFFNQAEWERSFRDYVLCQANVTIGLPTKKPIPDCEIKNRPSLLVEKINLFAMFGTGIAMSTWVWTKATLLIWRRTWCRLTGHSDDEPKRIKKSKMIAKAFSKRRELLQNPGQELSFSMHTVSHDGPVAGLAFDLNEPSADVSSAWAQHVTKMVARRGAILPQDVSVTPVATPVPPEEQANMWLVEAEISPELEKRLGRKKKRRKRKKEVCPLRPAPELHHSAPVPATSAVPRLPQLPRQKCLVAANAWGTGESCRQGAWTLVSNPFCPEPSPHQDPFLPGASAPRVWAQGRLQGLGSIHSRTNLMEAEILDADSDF
UniProt P28741: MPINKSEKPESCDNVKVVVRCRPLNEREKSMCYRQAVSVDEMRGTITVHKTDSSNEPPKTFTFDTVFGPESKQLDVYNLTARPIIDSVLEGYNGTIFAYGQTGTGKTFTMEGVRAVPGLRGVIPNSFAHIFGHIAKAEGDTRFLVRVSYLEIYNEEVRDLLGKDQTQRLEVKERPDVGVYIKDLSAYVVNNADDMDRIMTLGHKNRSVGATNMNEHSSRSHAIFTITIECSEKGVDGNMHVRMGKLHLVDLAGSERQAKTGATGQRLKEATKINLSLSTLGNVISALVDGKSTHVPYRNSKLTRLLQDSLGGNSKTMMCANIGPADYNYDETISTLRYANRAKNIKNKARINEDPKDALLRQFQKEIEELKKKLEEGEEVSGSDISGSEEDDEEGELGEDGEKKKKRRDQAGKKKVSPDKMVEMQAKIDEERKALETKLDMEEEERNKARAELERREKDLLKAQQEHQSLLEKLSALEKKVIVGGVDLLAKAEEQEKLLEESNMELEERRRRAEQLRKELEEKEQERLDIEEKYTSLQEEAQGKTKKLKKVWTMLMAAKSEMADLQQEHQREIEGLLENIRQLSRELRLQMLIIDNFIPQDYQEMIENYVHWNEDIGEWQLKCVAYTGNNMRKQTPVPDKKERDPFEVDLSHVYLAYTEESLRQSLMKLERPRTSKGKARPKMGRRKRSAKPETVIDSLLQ

How the values were obtained:
[1] = biological target: Smoothened (Smo), endogenous (mouse (endogenous in C3H10T1/2)) (UniProt P56726); assay: co-IP; endogenous proteins; anti-Vav2 or anti-Smo immunoprecipitates from total C3H10T1/2 cell lysates, blotted for Smo, Vav2 or phospho-Vav2; cells with or without N-Shh 100 ng/ml 24 h; IgG as negative control
[2] = biological target: KIF3A, endogenous (mouse (endogenous in C3H10T1/2)) (UniProt P28741); assay: co-IP; endogenous proteins; anti-KIF3A immunoprecipitates from total C3H10T1/2 cell lysates, blotted for IFT88; cells with MG132 10 μM, with or without daRac1 or NSC23766 10 μg/ml 24 h; IgG as negative control

- binding [1]: binds
B1: Vav2, endogenous (protein, UniProt Q60992 1-868)
chain: MEQWRQCGRWLIDCKVLPPNHRVVWPSAVVFDLAQALRDGVLLCQLLHNLSPGSIDLKDINFRPQMSQFLCLKNIRTFLKVCHDKFGLRNSELFDPFDLFDVRDFGKVISAVSRLSLHSIAQSKGIRPFPSEETAENDDDVYRSLEELADEHDLGEDIYDCVPCEDEGDDIYEDIIKVEVQQPMKMGMTEDDKRSCCLLEIQETEAKYYRTLEDIEKNYMGPLRLVLSPADMAAVFINLEDLIKVHHSFLRAIDVSMMAGGSTLAKVFLEFKERLLIYGEYCSHMEHAQSTLNQLLASREDFRQKVEECTLRVQDGKFKLQDLLVVPMQRVLKYHLLLKELLSHSADRPERQQLKEALEAMQDLAMYINEVKRDKETLKKISEFQCSIENLQVKLEEFGRPKIDGELKVRSIVNHTKQDRYLFLFDKVVIVCKRKGYSYELKEVIELLFHKMTDDPMHNKDIKKWSYGFYLIHLQGKQGFQFFCKTEDMKRKWMEQFEMAMSNIKPDKANANHHSFQMYTFDKTTNCKACKMFLRGTFYQGYLCTRCGVGAHKECLEVIPPCKMSSPADVDAPGAGPGPKMVAVQNYHGNPAPPGKPVLTFQTGDVIELLRGDPDSPWWEGRLVQTRKSGYFPSSSVKPCPVDGRPPTGRPPSREIDYTAYPWFAGNMERQQTDNLLKSHASGTYLIRERPAEAERFAISIKFNDEVKHIKVVEKDSWIHITEAKKFESLLELVEYYQCHSLKESFKQLDTTLKFPYKSRERTTSRASSRSPASCASYNFSFLSPQGLSFAPQAPSAPFWSVFTPRVIGTAVARYNFAARDMRELSLREGDVVKIYSRIGGDQGWWKGETNGRIGWFPSTYVEEEGVQ

- binding [1]: binds
B2: Y172-phospho-Vav2, endogenous (protein, UniProt Q60992 1-868)
chain: B1 chain
modifications: phosphotyrosine at 172

- binding [2]: binds
B3: IFT88, endogenous (protein, UniProt Q61371 1-824)
chain: MENVHLAPETDEDDLYSGFNDYNPAYDTEELENDTGFQQAVRTSHGRRPPVTAKIPSTAVSRPIATGYGSKTSLTSSMGRPMTGTIQDGVARPMTAVRAAGFSKAALRGSAFDPLGQSRGPAPPLEAKNEDSPEEKIRQLEKKVNELVEESCIANSCGDLKLALEKAKDAGRKERVLVRQREQVTSPENINLDLTYSVLFNLASQYSANEMYAEALNTYQVIVKNKMFSNAGRLKVNMGNIYLKQRNYSKAIKFYRMALDQIPSVHKEMRIKIMQNIGITFIKTGQYSDAINSFEHIMSMAPSLKAGFNLILSCFAIGDREKMKKAFQKLIAVPLEIDEDDKYISPSDDPHTNLLIEAIKNDHLRQMERERKAMAEKYIMTAAKLIAPVIEASFAVGYNWCVEVVKASQYVELANDLEINKAITYLRQKDFNQAVDTLKMFEKKDSRVKSAAATNLSFLYYLENEFAQASSYADLAVNSDRYNPSALTNKGNTVFANGDYEKAAEFYKEALRNDSSCTEALYNIGLTYKKLNRLDEALDSFLKLHAILRNSAQVLCQIANIYELMEDPNQAIEWLMQLISVVPTDSQALSKLGELYDSEGDKSQAFQYYYESYRYFPSNIEVIEWLGAYYIDTQFCEKAIQYFERASLIQPTQVKWQLMVASCFRRSGNYQKALDTYKEIHRKFPENVECLRFLVRLCTDIGLKEVQEYATKLKRLEKMKEMREQRIKSGRDSSGGSRSKREGSAGSDSGQNNSASSKSERLSAKLRALPGTDEPYESSGNKEIDASYVDPLGPQIERPKTAAKKRIDEDDFADEELGDDLLPE
